Laboratory results reported in PubChem BioAssay AID1240 (Sanford-Burnham Center for Chemical Genomics, 2008).
The whole screen tested about 50,000 compounds, of which about 800 (1.6%) showed an effect of 50% or more. The list shows a part of the results.

What follows are compounds tested against Bcl-2-like protein 10 (Homo sapiens) (UniProt Q9HD36) (assay: Phenotype converters, Bcl-B/TR3 peptide binding displacement, primary biochemical FP (AID 1240;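 note: 0% = Bcl-B with tracer peptide and DMSO and 100% = tracer peptide lacking Bcl-B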)). Conditions: GST-Bcl-B / FITC-TR3 peptide fluorescence polarization; stronger effect = higher value; compound at 3.75 mg/L.
Chain of UniProt Q9HD36 (Q9HD36 whole entry, looked up): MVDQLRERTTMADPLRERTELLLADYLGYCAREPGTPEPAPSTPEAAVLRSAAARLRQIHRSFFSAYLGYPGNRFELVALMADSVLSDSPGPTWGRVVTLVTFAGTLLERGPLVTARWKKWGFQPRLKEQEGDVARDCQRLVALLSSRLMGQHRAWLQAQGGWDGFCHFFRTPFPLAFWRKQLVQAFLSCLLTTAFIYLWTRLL

SMILES | displacement
COc1cccc(/C=C2/C(=O)NC(=O)N(c3cc(C)cc(C)c3)C2=O)c1O | 10%
Brc1cccc(CN2CCN(Cc3ccccn3)CC2)c1 | -24%
C=CCN1C(=O)/C(=C\c2ccc(OCc3ccccc3)cc2)SC1=S | 11.4%
O=C(O)CCN1C(=O)/C(=C/c2cn(-c3ccccc3)nc2-c2cccc([N+](=O)[O-])c2)SC1=S | 11.7%
COc1ccc(NC(=O)CN(c2cc(Cl)cc(Cl)c2)S(C)(=O)=O)cc1OC | 0.3%
CCCOC(=O)c1cccc(NC(=O)COc2cc(C)cc(C)c2)c1 | 16.6%
COc1cccc(C2c3c(-c4ccccc4)n[nH]c3C(=O)N2c2ccccc2)c1 (centres undefined) | 0.1%
CCOC(=O)C1C(=O)C=C(C)C(C(=O)OCC)C1c1ccc(Br)cc1 (centres undefined) | -6.7%
O=C1NC(=Nc2ccc(F)cc2)S/C1=C\c1ccco1 | 32.8%
Cn1c(=O)c2c3c(sc2n2c(SCc4ccccc4)nnc12)CCC3 | 11.7%
COc1cccc(-c2nnc(NC(=O)Nc3ccc(Cl)c(Cl)c3)s2)c1 | 4.5%
COCCOC(=O)c1ccc(NC(=O)COc2ccc(-c3ccc(C)cc3)cc2)cc1 | -1.9%
COc1cc(C(=O)N2CCN(C(=O)c3cccs3)CC2)cc(OC)c1OC | 9.4%
CCCOc1ccc2c(oc(=O)c3ccccc32)c1C | 9.1%
CC1=C(C(=O)OC2CCCCC2)C(c2ccc(O)cc2)C2=C(CCCC2=O)N1 (centres undefined) | -10.7%
C=CCOc1ccccc1/C=N/NS(=O)(=O)c1ccc(Cl)cc1 | -6.7%
O=C1/C(=C\c2ccco2)SC(=S)N1C1CCCCC1 | 22.4%
Cc1ccc([N+](=O)[O-])c(OCC(=O)Oc2ccccc2)c1 | -11.5%
CCN1C(=O)c2cccc3c(S(=O)(=O)N(C)c4ccccc4)ccc1c23 | -3.2%
CC1(C)Cc2ccccc2C(Nc2nc(-c3ccccc3)cs2)=N1 | 0.8%
COc1ccccc1C1Nc2ccccc2NC2=C1C(=O)CC(c1ccccc1)C2 (centres undefined) | -4.4%
COc1cccc2cc(-c3nc(-c4cc5cc(Br)ccc5oc4=O)cs3)c(=O)oc12 | -4.9%
Cn1cnnc1SCC(=O)Nc1ccccc1 | 0%
COc1ccc(C(=O)CN2CCN(CCN3C(=O)c4cccc5cccc(c45)C3=O)CC2)cc1 | 9.4%
O=c1/c(=C\c2ccc(OS(=O)(=O)c3cccc([N+](=O)[O-])c3)cc2)sc2nc3ccccc3n12 | -6.5%
COc1ccc(C=O)c2c(O)cccc12 | 14.6%
CN(C)c1ccc(-c2c3cc(O)c(=O)cc-3oc3cc(O)c(O)cc23)cc1 | 24.9%
O=C(O)CN1C(=O)/C(=C2\SC(=S)N(/N=C/c3cc([N+](=O)[O-])ccc3O)C2=O)c2ccccc21 | 32.1%
O=C(NNC(=O)c1cccnc1)NC1CCCCC1 | -6%
